Results on 9 compounds are retold here after patent US7973069B2 (PTC Therapeutics, Inc., priority 2004, dated 2011).

Assay [1] deals with HCV replicon. The experiment in a line: microbe, parasite or virus in culture. The class given is cell-based. Particulars: Hepatitis C virus.
Assay [2] has as its system cap-dependent translation (pLuc). Put plainly: Western blot of Fluc protein in pLuc cells (cap-dependent translation). Particulars: 20 hours treatment; data not shown. The protocol: (§1) Both HepGmono-4 and pLuc cells are treated with the compounds as described above, following treatment with the test compounds for 20 hours, cells are collected and lysed in Laemmli buffer containing 0.5% SDS. Proteins are separated on a 10% SDS-PAGE, then transferred onto a nitrocellulose membrane, and blotted using antibodies against Fluc (RDI) and β-actin (Oncogene).
A general note: In western blotting, separated proteins are transferred to a membrane and probed.

The subject of assay [3] is HCV IRES-driven translation. The protocol:
as §1

Setting [4] is: 48 h, read-out: Replicon IC50 μM 2-day.

Like-named read-outs stand apart in the source and are kept apart here.

Consider `CCCS(=O)(=O)Nc1ccc(-c2c(C#N)c3ccc(OC(F)F)cc3n2CC)cc1` [Compound 928, Propane-1-sulfonic acid [4-(3-cyano-6-difluoromethoxy-1-ethyl-1H-indoel-2-yl)-phenyl]-amide], for which the IC50 is below 0.5 µM in assay [1] (setting [4]) and below 0.5 µM in assay [1] (72 h, read-out: Replicon IC50 μM 3-day).
`C[C@@H](OC(=O)Nc1ccc(-c2c(C#N)c3ccc(Oc4ncccn4)cc3n2C2CCC2)cc1)C1CC1` [Compound 2210, (R)-{4-[3-cyano-1-cyclobutyl-6-(pyrimidin-2-yloxy)-1H-indol-2-yl]-phenyl}carbamic acid 1-cyclopropyl-ethyl ester]: in assay [1] (setting [4]), the IC50 is below 0.5 µM.
Take `C[C@@H](OC(=O)Nc1ccc(-c2c(C#N)c3ccc(Oc4ncccn4)cc3n2C2CC2)cc1)C1CC1` [Compound 2217, (R)-{4-[3-cyano-1-cyclopropyl-6-(pyrimidin-2-yloxy)-1H-indol-2-yl]-phenyl}-carbamic acid 1-cyclopropylethyl ester]: in assay [1] (setting [4]), the IC50 is below 0.5 µM.
Still for that read-out and setting: as for `CC(C)NS(=O)(=O)Nc1ccc(-c2c(C#N)c3ccc(Oc4ncccn4)cc3n2C2CCC2)cc1` [Compound 2263], the figure is below 0.5 µM; as for `CC(C)OC(=O)Nc1ccc(-c2c(C#N)c3ccc(Oc4ncccn4)cc3n2C2CCC2)cc1Cl` [Compound 2339, {2-chloro-4-[3-cyano-1-cyclobutyl-6-(pyrimidin-2-yloxy)-1H-indol-2-yl]-phenyl}-carbamic acid isopropyl ester], below 0.5 µM; as for `C[C@@H](OC(=O)Nc1ccc(-c2c(C#N)c3ccc(-c4ccccn4)cc3n2C2CCC2)cc1)C1CC1` [Compound 2417, [4-(3-cyano-1-cyclobutyl-6-pyridin-2-yl-1H-indol-2-yl)-phenyl]-carbamic acid 1-cyclopropyl-ethyl ester], below 0.5 µM.
Same read-out and setting: the value for `C[C@@H](OC(=O)Nc1ccc(-c2c(C#N)c3ccc(-c4ncccn4)cc3n2C2CCC2)cc1)C1CC1` [Compound 2419, [4-(3-cyano-1-cyclobutyl-6-pyrimidin-2-yl-1H-indol-2-yl)-phenyl]-carbamic acid 1-cyclopropyl-ethyl ester] was below 0.5 µM; that for `CC(C)Nc1ccc(-c2c(C#N)c3ccc(Oc4ncccn4)cc3n2C2CC2)cc1` [Compound 2434, 1-cyclopropyl-2-(4-isopropylamino-phenyl)-6-(pyrimidin-2-yloxy)-1H-indole-3-carbonitrile] was below 0.5 µM.
`COc1ccc(C[C@H](N)C(=O)N[C@H]2[C@@H](O)[C@H](n3cnc4c(N(C)C)ncnc43)O[C@@H]2CO)cc1` [puromycin]: in assay [2], the “luciferase reporter protein in pLuc cells, cap-dependent (Western blot)” value is on record as “inhibited”. Moreover, in assay [3], the “luciferase reporter protein levels in HepGmono-4 cells (Western blot)” value is “inhibited”.

In general, IC50 refers to the point on the concentration scale where inhibition reaches its midpoint.
